# Experimental data from PubChem BioAssay AID686978 (National Center for Advancing Translational Sciences (NCATS), 2013).
# Where “and” joins values, the source holds several entries; their conditions need not be identical. Equal entries are not always repeated. The whole screen tested about 420,000 compounds, of which about 64,000 (15%) were called active. This list was built around the results that the source calls inconclusive (neither active nor inactive); the mix of calls is not that of the screen. Calls follow the shape of the dose curve; as a rule, active = well fitted inhibition curve with a large enough effect; inconclusive = small, poorly fitted or top-dose-only effect; inactive = flat fitted curve, though single readings scatter. Where the call is inconclusive, the potency comes from a doubtful curve fit.
# Experiment: qHTS for Inhibitors of human tyrosyl-DNA phosphodiesterase 1 (TDP1): qHTS in cells in absence of CPT; also: nearly all actives have a fitted effect of over 55% in size
# Conditions: DT40 Tdp1-/- hTDP1 cells, no CPT, ATP luminescence, 48 h; activity change, negative = growth inhibition: at 46.2 µM (top of the series) unless noted
# Summary of the method: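 A cellular qHTS used chicken DT40 cells lacking endogenous Tdp1 but carrying stably transfected human TDP1. Compounds were applied without camptothecin, and cell growth kinetics were judged by ATP-dependent luminescence after ≥48 hr.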
# % is scaled to controls: 0 for no effect and ±100 for the full control effect; potency is read from the fitted curve at half-maximal effect; tags tell the direction and shape of the fitted curve.
Structure (SMILES),Potency,"activity change, negative = growth inhibition"
Cc1cc(Cl)c2cc3ccccc3cc2n1,"inconclusive: 29.1 µM [inhibitor, single point]",
Cc1cc(C)[n+](-c2ccc(F)cc2)c2[nH]c(=O)[nH]c(=O)c12,,inactive: -15.4%
Cc1ccc(S(=O)(=O)N2CCOCC2)cc1NC(=O)COc1ccc(C(=O)c2ccccc2)cc1,"inconclusive: 29.1 µM [inhibitor, single point]",
COC(=O)c1ccccc1NC(=O)C1CCCN(c2nnc(-n3cccc3)s2)C1 (centres undefined),active: 20.6 µM,
S=C(NCCC(c1ccccc1)c1ccccc1)Nc1ccccc1Cl,,inconclusive: -36.3% [inhibitor]
O=C(NCc1ccncc1)[C@@H]1CCCN1C(=O)[C@@H]1CCCN1C(=O)c1c(F)cccc1F,,inactive: -16.7%
Cc1ccc(S(=O)(=O)CCC(=O)NCc2ccc(Cl)cc2)cc1,,inactive: -14.2%
O=C(CSCc1c(Cl)cccc1Cl)NN1C(=O)c2ccccc2C1=O,,inactive: -2.81%
Cc1csc(SCc2ccc(C(=O)O)cc2)n1,,inactive: -0.75%
O=C(Nc1cccc(S(=O)(=O)NC2=NCCCCC2)c1)c1ccc(Cl)cc1,active: 11.6 µM,
CC1(C)CC(NC(=S)NC2CC2)CC(C)(C)N1,,inactive: -13.9%
Cn1c(CNS(=O)(=O)c2ccc(F)cc2)n[nH]c1=S,,inactive: 2.72%
COc1ccc(CCNC(=O)Nc2ccc3c(c2)c(=O)n(C)n3CC=C(C)C)cc1OC,"inconclusive: 16.4 µM [inhibitor, partial curve]",
Brc1ccc(OCc2cn3ccccc3n2)cc1,"inconclusive: 29.1 µM [inhibitor, single point]",
CCOC(=O)N1CCN(Cc2nc3cc([N+](=O)[O-])ccc3n2C(C)C)CC1,"inconclusive: 23.1 µM [inhibitor, single point]",
CC(C)(C)NC(=O)C[C@H]1C[C@H](C(=O)N2CCCCC2)[C@@]2(CCc3ccccc3)c3[nH]c4cc(-c5ccco5)ccc4c3CCN2C1=O,active: 23.1 µM,
C[C@H](O)[C@@H]1C(=O)N2CCc3ccc(-c4ccccc4)cc3[C@@H]2C[C@@H]1N(C)C(=O)c1cccnc1,"inconclusive: 18.4 µM [inhibitor, single point]",
COc1ccc2oc(C(=O)Nc3ccc(N4CCOCC4)cc3)c(C)c2c1,"inconclusive: 20.6 µM [inhibitor, single point]",
CCc1cccc(C)c1NC(=S)N(CCCN1CCOCC1)Cc1cccnc1,,inactive: 0.457%
CC(C)(C)NC(=O)C(c1ccc(F)cc1)N(Cc1ccco1)C(=O)c1csnn1 (centres undefined),,inactive: -12.3%
O=C(Nc1ccc(C(=O)N2CCCC2)cc1)C1CC1,,inactive: -1.88%
CC(C)c1nc2ccc(C(=O)NCCCN3CCN(c4cccc(Cl)c4)CC3)cc2o1,active: 20.6 µM,
CN(C)C(=O)COc1ccc2c3c(c(=O)oc2c1)CCCC3,,inactive: -6.65%
O=[N+]([O-])c1ccc2c(c1)ncn2-c1ccccc1,"inconclusive: 9.2 µM [inhibitor, partial curve]",
CCc1ccccc1NC(=O)CN(C)C(=O)COC(=O)c1ccccc1Cl,,inactive: 0.3%

Structure (SMILES),Potency,"activity change, negative = growth inhibition"
CC1(C(=O)NS(=O)(=O)c2cccc(OC(F)F)c2)CCN1C(=O)CCc1cccs1 (centres undefined),,inactive: 0.0746%
Cc1cc(C)cc(NC(=O)CSCc2cnn(-c3ccccc3)c2-n2cccc2)c1,active: 10.3 µM,
O=C(NC(=S)Nc1cccc(NC(=O)c2ccc(Cl)cc2Cl)c1)c1cccs1,"inconclusive: 1.64 µM [inhibitor, full curve, poor fit]",
COc1ccc(C2CC(c3ccccc3)=NN2C(=O)COC(=O)c2cccc(O)c2)cc1 (centres undefined),"inconclusive: 23.1 µM [inhibitor, single point]",
COC(=O)/C=C/c1ccc2c(c1)S(=O)(=O)N(Cc1ccc(OC)cc1)[C@H]2CC(=O)OC,"inconclusive: 16.4 µM [inhibitor, partial curve, poor fit]",
COc1ccccc1CCCNC(=O)C1CCC(=O)N(CCc2ccc(Cl)cc2)C1 (centres undefined),active: 23.1 µM,
Cc1ccc(C)c(OCC(=O)Nc2ccc(S(=O)(=O)Nc3ccccn3)cc2)c1C,"inconclusive: 13 µM [inhibitor, partial curve]",
COc1cc(C(=O)Nc2cc(S(=O)(=O)N3CCOCC3)ccc2N2CCN(C)CC2)cc(OC)c1OC,,inactive: 9.57%
COC(=O)c1cc(C(=O)Nc2ccc(S(N)(=O)=O)cc2)cc([N+](=O)[O-])c1,,inactive: -9.97%
NS(=O)(=O)c1ccc(CCNC(=O)CNCCc2ccc(C(F)(F)F)cc2)cc1,"inconclusive: 29.1 µM [inhibitor, single point]",
CC(NC(=O)c1ccc2c(c1)OCO2)C(c1cccs1)N1CCN(c2ccccc2)CC1 (centres undefined),active: 18.4 µM,
COC(=O)c1ccc(CNc2ccc(C(C)=O)cc2)cc1,active: 14.6 µM,
COC(=O)CCc1c(C)[nH]c(=S)[nH]c1=O,,inactive: 4.4%
CCCN(Cc1nnc(-c2ccccc2Cl)o1)C(=O)c1cc(S(=O)(=O)N2CCOCC2)ccc1F,"inconclusive: 29.1 µM [inhibitor, single point]",
COc1ccc(NC(=O)NC2CCN(C(C)C)CC2)c(OC)c1,,inactive: -7.26%
O=C(CN1CCCCC1)N1CCCc2c1c(=O)oc1ccc(OCc3ccccc3)cc21,"inconclusive: 23.1 µM [inhibitor, single point]",
CCNC(=S)NS(=O)(=O)c1ccc(Cl)cc1,,inactive: -7.8%
CCCN1CNc2c(c(=O)[nH]c(=S)n2CCc2cc(Cl)cc(Cl)c2)C1,active: 3.98 µM,
CC(C)C1COC(c2cccc3ccccc23)=N1 (centres undefined),"inconclusive: 29.1 µM [inhibitor, single point]",
N#CCCn1cc(/C=C2\NC(=S)N(c3ccccc3)C2=O)c(-c2ccc(-c3ccccc3)cc2)n1,active: 8.2 µM,
COc1ccc(NC(=O)COc2coc(CN3c4ccccc4CC3C)cc2=O)cc1 (centres undefined),,inactive: -13.9%
CC(C)C(=O)Nc1ccc(C(=O)NNC(=O)c2cccs2)cc1,,inactive: 5.71%
CCN(CC)S(=O)(=O)c1ccc(C(=O)N2CCN(C(=O)c3ccco3)CC2)cc1,,inactive: -1.8%
O=C(/C=C1\SC(=O)NC1=O)Nc1ccc(F)cc1,,inactive: -25.2%
O=c1c(-c2ccc(Cl)cc2)nc2cnc(N3CCNCC3)nc2n1CCc1ccccc1,active: 18.4 µM,

Structure (SMILES),Potency,"activity change, negative = growth inhibition"
CCN(CC)C(=O)COc1ccc(S(=O)(=O)N2CCOCC2)cc1,,inactive: -11.9%
COc1ccc2[nH]c3c(c2c1)CCN1C(=O)C(CC(=O)NCCC2=CCCCC2)C[C@H](C(=O)N2CCCCC2)[C@@]31CCc1ccccc1 (some centres undefined),"inconclusive: 16.4 µM [inhibitor, single point]",
O=C(c1cc(C(F)(F)F)cc(C(F)(F)F)c1)N1CCC2(CC1)CCN(c1ccccn1)CC2,active: 20.6 µM,
Cc1ccc(NC(=O)CSc2nnc(NC(=O)c3ccc(S(=O)(=O)N4CCOCC4)cc3)s2)cc1,"inconclusive: 18.4 µM [inhibitor, single point]",
Cc1cc(NC(=O)Nc2cccc(C)c2C)no1,,inactive: -27%
O=C(Nc1cccc(S(=O)(=O)N2CCOCC2)c1)c1ccc(N2CCOCC2)c([N+](=O)[O-])c1,"inconclusive: 29.1 µM [inhibitor, single point]",
CC1CCCCC12NC(=O)N(CC(=O)Nc1ccc(OC(F)F)cc1)C2=O (centres undefined),"inconclusive: 20.6 µM [inhibitor, single point]",
O=c1c(-c2cc3ccccc3[nH]2)nc2ccccc2n1C(CCc1ccccc1)c1nc2ccccc2[nH]1 (centres undefined),active: 18.4 µM,
CC(C)C[C@H](NC(=O)OC(C)(C)C)c1nnc(SCc2cccc(F)c2)o1,"inconclusive: 25.9 µM [inhibitor, single point]",
CC(C)Cn1c(N)c(C(=O)COC(=O)COc2cccc(C(F)(F)F)c2)c(=O)n(C)c1=O,,inactive: -7.64%
Cc1ccc(S(=O)(=O)N(CC(=O)Nc2cccnc2)c2ccc(Br)cc2)cc1,"inconclusive: 29.1 µM [inhibitor, single point]",
CCOC(=O)c1cc(S(=O)(=O)N2CC(C)CC(C)C2)cn1C (centres undefined),"inconclusive: 25.9 µM [inhibitor, single point]",
CCOc1ccc(NC(=O)CSc2nnc3c(n2)[nH]c2ccc(S(=O)(=O)N(C)C)cc23)cc1,"inconclusive: 15.8 µM [inhibitor, single point]",
COCCNC(=O)C1(C)CCCN(Cc2ccc(-n3ccnc3)cc2)C1 (centres undefined),,inactive: -0.109%
Clc1ccc(OCCCN2CCc3ccccc3C2)c(Br)c1,"inconclusive: 18.4 µM [inhibitor, single point]",
CN(CC(=O)Nc1sccc1C#N)S(=O)(=O)c1ccc(F)cc1,,inactive: -21.7%
CCOc1ccc(C(=O)OCC(=O)NCc2ccco2)cc1OCC,,inactive: -15.8%
CC(NC(=O)c1ccc(Br)cc1)c1ccc2c(c1)CCCC2 (centres undefined),"inconclusive: 23.1 µM [inhibitor, single point]",
Clc1ccc(Oc2nc(Oc3ccc(Cl)cc3)nc(N3CCOCC3)n2)cc1,"inconclusive: 29.1 µM [inhibitor, single point]",
CC1Cc2ccccc2N1CC(=O)Nc1ccc2c(c1)OCO2 (centres undefined),,inconclusive: -31.5% [inhibitor]
Cc1cnc(NC(=O)CN2CCN(c3ccccn3)CC2)s1,"inconclusive: 15.8 µM [inhibitor, single point] and inconclusive: 18.4 µM [inhibitor, single point]",
CN(C)c1ccc(C(=O)NNC(=O)C23CC4CC(CC(C4)C2)C3)cc1,"inconclusive: 29.1 µM [inhibitor, single point]",
COc1ccc(CCNc2nc(Cl)nc(NC(C)(C)CO)n2)cc1OC,"inconclusive: 16.4 µM [inhibitor, partial curve]",
COC(=O)[C@]1(Cc2ccccc2)N[C@H](CN(C)C(=O)Nc2ccc(OC)cc2)[C@@H]2C(=O)N(Cc3ccccc3)C(=O)[C@@H]21,active: 8.2 µM,
